Measurements taken from patent publication US20220073613A1, “ACTIVATABLE MASKED ANTI-CTLA4 BINDING PROTEINS” (Xilio Development, Inc., priority 2018, published 2022).
Positions count from the first letter of the chain named.

B1: Antibody 2-15: masked Antibody 2-6: mask CPGKGLPSC, non-cleavable peptide GSGGSG; SEQ ID NO: 423 and 421; negative control (protein)
light: ACPGKGLPSCGGGSSGGSGGSGGSGSGGEIVLTQSPDFQSVTPKEKVTITCSANSALSYMYWYQQKPDQSPKLWVHGTSNLASGVPSRFSGSGSGTDFTLTINSLEAEDAATYYCHHWSNTQWTFGGGTKVEIKRTVAAPSVFIFPPSDEQLKSGTASVVCLLNNFYPREAKVQWKVDNALQSGNSQESVTEQDSKDSTYSLSSTLTLSKADYEKHKVYACEVTHQGLSSPVTKSFNRGEC
heavy: QVQLVQSGAEVKKPGSSVKVSCKASGYTFTNYFMNWVRQAPGQGLEWMGRVDPEQGRADYAEKFKKRVTITADKSTSTAYMELSSLRSEDTAVYYCARRAMDNYGFAYWGQGTLVTVSS[human IgG1 constant region with changes left out here]
B2: Antibody 2-14: masked Antibody 2-6: mask CPGKGLPSC, cleavable peptide VPLSLY; SEQ ID NO: 358 and 421 (protein)
light: B1 light with G20V, S21P, G22L, G23S, S24L, G25Y
heavy: QVQLVQSGAEVKKPGSSVKVSCKASGYTFTNYFMNWVRQAPGQGLEWMGRVDPEQGRADYAEKFKKRVTITADKSTSTAYMELSSLRSEDTAVYYCARRAMDNYGFAYWGQGTLVTVSS[human IgG1 constant region with changes left out here]
B3: Antibody 2-10: masked Antibody 2-6: mask CPFPALELC, non-cleavable peptide GSGGSG; SEQ ID NO: 427 and 421; negative control (protein)
light: B1 light with G4F, K5P, G6A, P8E, S9L
heavy: QVQLVQSGAEVKKPGSSVKVSCKASGYTFTNYFMNWVRQAPGQGLEWMGRVDPEQGRADYAEKFKKRVTITADKSTSTAYMELSSLRSEDTAVYYCARRAMDNYGFAYWGQGTLVTVSS[human IgG1 constant region with changes left out here]
B4: Antibody 2-16: masked Antibody 2-6: mask CPFPALELC, cleavable peptide DSGGFMLT; SEQ ID NO: 422 and 421 (protein)
light: ACPFPALELCSSGGSGPDSGGFMLTSGGEIVLTQSPDFQSVTPKEKVTITCSANSALSYMYWYQQKPDQSPKLWVHGTSNLASGVPSRFSGSGSGTDFTLTINSLEAEDAATYYCHHWSNTQWTFGGGTKVEIKRTVAAPSVFIFPPSDEQLKSGTASVVCLLNNFYPREAKVQWKVDNALQSGNSQESVTEQDSKDSTYSLSSTLTLSKADYEKHKVYACEVTHQGLSSPVTKSFNRGEC
heavy: QVQLVQSGAEVKKPGSSVKVSCKASGYTFTNYFMNWVRQAPGQGLEWMGRVDPEQGRADYAEKFKKRVTITADKSTSTAYMELSSLRSEDTAVYYCARRAMDNYGFAYWGQGTLVTVSS[human IgG1 constant region with changes left out here]

Legend:
[1] = target: T1, human CTLA4-Fc (Homo sapiens, UniProt P16410); experiment: Low density antigen binding ELISA, with or without protease activation
T1 construct: purchased R&D Systems 7268-CT
Procedure: Masked antibodies were buffer exchanged into MMP cleavage buffer prior to incubation with the protease. For activation, protease (Anaspec, ProsecBio, and R&D Systems) was diluted to 100 ng/μL in MMP cleavage buffer (50 mM Tris pH 8.0, 150 mM NaCl, 10 mM CaCl2). APMA (10 mM in DMSO) was added to a final concentration of 1 mM. The enzyme was incubated at 37° C. for 1 hour. Activated protease was added to the masked antibodies at a ratio of 1:1000 antibody:protease (e.g., 1 ug MMP to 1 mg antibody) or an equal amount of buffer was added to negative control samples. Samples were incubated at 37° C. overnight.
Polystyrene 96-well microplates (Fisher #07-200-591) were coated with 1 μg/mL of human CTLA4-Fc (R&D #7268-CT) per well and stored overnight at 4° C. Plates were washed with 0.05% Tween in TBS (TBS-T), blocked with 1% BSA (Sigma Aldrich #B4287-25G), and washed with TBS-T. Serial dilutions of samples containing anti-CTLA4 antibodies were made in assay buffer (PBS+0.05% Tween+1% BSA), added to plate, and shaken orbitally at 100 RPM at room temperature for one hour. After washing with TBS-T, anti-human Kappa light chain [clone: SB81a]-HRP (Abcam #ab79115) diluted to 1:8000 in assay buffer was applied to the wells and shaken at room temperature for one hour. Plates were washed with TBS-T, HRP substrate (Super Signal Pico Chemiluminescent Substrate, Thermo #37069) was applied to plate, and luminescence was recorded using a spectrophotometer (BioTek). Data was analyzed with GraphPad Prism.
Humanized anti-CTLA4 antibodies were used in low density antigen binding ELISA described in Example 7. For assessing activation of masked activatable forms of the humanized anti-CTLA4 antibodies, recombinant proteases were used as outlined in Example 6.
Serial dilutions of the antibodies were made in assay buffer, added to 96-well microplates coated with human CTLA4-Fc, and shaken at room temperature for one hour. Plates were washed with TBS-T, blocked with BSA, and washed again with TBS-T. The antibodies were added to plate and shaken. After washing, anti-human Kappa light chain (conjugated to HRP) in assay buffer was applied to the wells and shaken at room temperature. Plates were washed again before HRP substrate was added. Luminescence was recorded using a spectrophotometer and data analyzed with GraphPad Prism.
FIG. 10A and FIG. 10B show binding studies with masked and unmasked versions of Antibody 2 in the absence (FIG. 10A) or presence (FIG. 10B) of protease. […] Higher concentrations of antibodies are necessary to show binding as evidenced by the shift to the right of the unmasked Antibody 2-6 and the IgG1 isotype (FIG. 10A). Masked antibodies are considered occluded by masking peptide. The occlusion of each masked antibody is shown in Table 7, below, and is calculated by dividing the EC50 for the masked antibody by the EC50 of the unmasked parental antibody, Antibody 2-6.
Unmasked parental Antibody 2-6 was included as a control and was not exposed to protease. Protease digestion was performed according to the protocol provided in Example 6.
A comparison of the in vitro sensitivity of the cleavable peptide sequences to select proteases is shown as radar plots in FIG. 11A-H. Activation of each antibody by each protease on the radar plot is depicted using a radar plot, where activation is depicted as ranging from 0 (no activation) to 1.0 (full activation). […] The occlusion of each masked antibody is shown in Table 12, below, and is calculated by dividing the EC50 for the masked antibody by the EC50 of the unmasked parental antibody, Antibody 2-6. Binding was conducted according to the protocol provided in Example 7 and Example 8 and proteolytic treatment of the antibodies was conducted to according to the protocol provided in Example 6 and Example 8. A solution of masked anti-CTLA4 antibody (1000 nM) was made in appropriate cleavage buffer. Two antibody samples were aliquoted into two 0.5 mL Eppendorf tubes. […]

[2] = In vivo cleavage of masked antibodies in plasma of healthy mice, Western blot; design: species or system C57BL/6J mice; conditions: 200 μg i.p., days 2, 4, 7
Procedure: Healthy, non-tumor bearing, seven-eight week old female C57BL/6J mice were injected intraperitoneally on day 0 with 200 μg of masked forms of Antibody 2. On days two and four, blood was collected via RO sinus and processed with LiHep for plasma isolation. On day seven, blood was collected via cardiac puncture and processed with LiHep for plasma isolation. Plasma was aliquoted and stored at −80° C. until Western blot analysis. Standard samples where the masked antibody was treated in the presence or absence of protease in vitro were included as positive controls. For Western blot analysis, plasma samples were diluted in PBS, then in Laemmli Sample Buffer and βME. Samples were heated at 95° C. then loaded on a Criterion TGX Stain-free Precast gel. SDS-PAGE was performed at 200 V for forty-two minutes. Protein was transferred to nitrocellulose membrane and blocked in 1×TBS with 1% Casein Blocker for one hour at room temperature shaking. The membrane was probed with HRP-conjugated Rb mAb to human Kappa Light Chain [clone EPR5367-8], diluted 1:10,000 in Casein Blocker, overnight at 4° C. shaking. The membrane was washed three times with PBS-Tween and developed with SuperSignal ELISA Pico Chemiluminescent Substrate. Raw data was analyzed with ImageLab software. Activation percentage was calculated as follows: the intensity of the activated band/(intensity of the activated band+intensity of the masked non-activated band)*100%.
In vivo experiment was performed in two cohorts across two weeks, with Antibody 2-14 included in both cohorts. Antibodies that were tested include Antibody 2-14, Antibody 2-15, Antibody 2-16, Antibody 2-17, Antibody 2-18, Antibody 2-19, Antibody 2-20, and Antibody 2-21. Antibody 2-15 includes a cleavable peptide sequence that is non-cleavable, for use as a negative control.

[3] = system: human conditioned media from human tumors (colon tumors, lung tumors); experiment: Ex vivo cleavage in conditioned media from human tumors, ELISA, SDS-PAGE and MS; conditions: for percentage (%) of cleavage / molecules cleaved, ELISA / percentage (%) of cleavage based on MS data: colon2 4sept colon tumor sample
[4] = Pharmacokinetics in cynomolgus monkeys; assay type: in vivo; conditions: 10 mg/kg intravenous dose
[5] = cultured in colon tumor conditioned media (colon2 4 sept)
[6] = colon tumor conditioned media, MS

Molecule	Activation ([1]; Table 12, Protease +)	Occlusion ([1]; Table 12, Protease +)	Occlusion ([1]; Table 12, Protease −)	activation in vivo (cleavage in plasma) [2]	percentage (%) of cleavage / molecules cleaved, ELISA [3]	percentage (%) of cleavage based on MS data [3]	abundance of intact antibody, mass spectrometry ([3]; cultured in RPMI as a control)	abundance of intact antibody, mass spectrometry [3, 5]	pharmacokinetics (level of antibody in plasma over 14 days) [4]	percentage (%) of cleavage, ELISA ([3]; colon2 8aug colon tumor sample)	percentage (%) of cleavage, ELISA ([3]; colon 28aug colon tumor sample)	percentage (%) of cleavage, ELISA ([3]; lung tumor sample)	also measured
B1	0.29	44	62	not detected	0%	1.2%	98.8%	98.8%					binding upon addition of various exemplary proteases (radar plot) ([1]; Adam17, MMP1, MMP2, MMP7, MMP9, MMP10, MMP14, NapsinA): unaffected in its binding
B2	1.0	1.1	101	activated in vivo	100%	95.2%	99.6%	4.8%	favorable pharmacokinetics	100%	75%	2.7%	abundance of the L*SLY cleavage product [3, 6]: 69%; abundance of the L*YSGG cleavage product [3, 6]: 2.7%; abundance of the S*GG cleavage product [3, 6]: 6.3%; abundance of the S*LY cleavage product [3, 6]: 5.9%; abundance of the Y*SGG cleavage product [3, 6]: 11.3%
B3						5.7%	97.5%	94.3%					Occlusion ([1]; Table 7, absence of protease, EC50 masked antibody / EC50 Antibody 2-6): 43; Occlusion ([1]; Table 13, Protease −): 43
B4				not detected	100%	99.8%	99.8%	0.2%	favorable pharmacokinetics	98%	45%	21%	abundance of the T*SGG cleavage product [3, 6]: 96.8%
